# Data reported in paper PMC12350791.
# Target: Elongation factor 1-alpha 2 (UniProt Q05639)
# Test: cross-link between two proteins; cross-linking mass spectrometry
# Chain of UniProt Q05639 (Q05639 whole entry): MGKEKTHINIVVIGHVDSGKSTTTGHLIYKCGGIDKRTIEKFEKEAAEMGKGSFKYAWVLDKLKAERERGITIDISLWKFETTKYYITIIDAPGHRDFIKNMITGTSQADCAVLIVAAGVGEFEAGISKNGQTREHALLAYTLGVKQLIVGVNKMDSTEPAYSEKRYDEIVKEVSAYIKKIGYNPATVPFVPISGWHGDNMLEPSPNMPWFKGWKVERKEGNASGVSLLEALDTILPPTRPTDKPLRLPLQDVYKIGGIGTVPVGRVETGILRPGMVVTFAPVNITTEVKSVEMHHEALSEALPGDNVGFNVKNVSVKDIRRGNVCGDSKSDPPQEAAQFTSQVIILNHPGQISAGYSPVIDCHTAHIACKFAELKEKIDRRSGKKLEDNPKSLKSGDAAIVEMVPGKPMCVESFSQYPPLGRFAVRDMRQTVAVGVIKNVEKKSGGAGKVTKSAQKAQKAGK
# Chain of Elongation factor 1-gamma (chain, as listed by the source): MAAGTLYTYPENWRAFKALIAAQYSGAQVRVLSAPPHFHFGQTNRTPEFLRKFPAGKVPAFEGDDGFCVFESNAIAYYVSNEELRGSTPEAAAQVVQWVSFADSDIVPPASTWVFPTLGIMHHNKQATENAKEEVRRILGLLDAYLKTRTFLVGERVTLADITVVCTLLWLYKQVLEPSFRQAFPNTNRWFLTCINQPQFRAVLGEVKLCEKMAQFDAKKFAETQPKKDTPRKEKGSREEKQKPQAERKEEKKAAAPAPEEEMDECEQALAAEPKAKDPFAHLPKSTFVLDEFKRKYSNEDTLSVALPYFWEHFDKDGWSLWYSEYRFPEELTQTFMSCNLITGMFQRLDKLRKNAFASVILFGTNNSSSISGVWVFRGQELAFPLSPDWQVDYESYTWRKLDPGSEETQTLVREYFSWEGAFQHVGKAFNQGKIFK
substance,measurement,value
Elongation factor 1-gamma,listed as a hit,yes
